The results in this text go back to PubChem BioAssay (NCI).

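The compound was tested at five concentrations on cells cultured in 96-well plates, with a 48-hour exposure period. GI50: concentration for 50% inhibition of growth. The concentration for full growth arrest is given as TGI.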 Square brackets hold non-standard residues; d marks the D form. Peptide text beside a SMILES is read from it. * marks the point of attachment. ξ: configuration not given here. 4Abz = Nc1ccc(C(=O)O)cc1; ξL = CC(C)CC(N)C(=O)O; NHOH = ON*

The subject of the assay is NCI-H322M lung. Kind of assay: DTP human tumour cell line panel, 48 h.
Take `O=C1CCc2cc([N+](=O)[O-])ccc2O1`: the concentration for total growth inhibition (TGI) (in general, the concentration at which net growth stops) was above 100 µM. Same read-out and setting: then `CCOC(=O)n1c2ccccc2c2c(O)c(OC)c3c(c21)C(=O)NC3=O`, with above 100 µM. The compound `CC(=O)OCC1OC(n2c(-c3ccc(N)cc3)cc(-c3ccco3)c(C#N)c2=O)C(OC(C)=O)C(OC(C)=O)C1OC(C)=O` (stereo unspecified) returned a TGI above 50 µM. For the compound `COc1cc(OC)c(Oc2cccc(OC)c2OC)c(OC)c1`, the concentration for total growth inhibition (TGI) was above 100 µM. `CC(=O)Nc1ccc(S(=O)(=O)/N=c2/sc(S(N)(=O)=O)nn2C)cc1`: the TGI is above 100 µM.

For the compound `Cc1cc([C@H](C#N)c2nc3ccccc3s2)nc(Cl)n1`, the TGI was above 100 µM.

The compound `COC(=O)C1=C(SC)SC2(C(=O)OC)C3C=C(C)C4C(N13)C42C(=O)OC` (stereo unspecified) had a concentration for total growth inhibition (TGI) above 100 µM. As for `N#CC1(Cc2ccccc2Cl)c2ccccc2C=CN1C(=O)c1ccccc1` (stereo unspecified), the TGI is above 100 µM. Regarding `O=C(N/C(=C\c1cc(Cl)ccc1Cl)c1nc2ccccc2[nH]1)c1ccccc1`, the total growth inhibition concentration (TGI) is above 100 µM. Regarding `c1ccc2c(c1)N=c1ccccc1=P21c2ccccc2Nc2ccccc21`, the total growth inhibition concentration (TGI) turned out to be 13.4 µM. `COc1c(Cl)ccc(Cl)c1-c1nnc(-c2c(Cl)c(Cl)c(Cl)c(Cl)c2-c2nc3ccc(C(=O)c4ccccc4)cc3[nH]2)o1` gave a TGI above 100 µM. On the same count and under the same terms, the figure for `COc1ccc(/C=C/C=C2C(=O)NC(=S)NC2=O)cc1` is 47 µM. Same read-out and setting: then `NC(=O)NC1=NCCC(=O)N1CCc1c[nH]c2ccccc12`, with 57.7 µM; and `CC(CCC(=O)O)(c1cc(Br)c(O)c(Br)c1)c1cc(Br)c(O)c(Br)c1`, with above 100 µM; and `NC(=O)c1ccc(N)nc1`, with above 400 µM.

Turning to `Nc1ccc(Cl)cc1.Nc1ccc(Cl)cc1.Nc1ccc(Cl)cc1.O=C([O-])C(=O)[O-].O=C([O-])C(=O)[O-].[H+].[Ru+5]`, the GI50 (in general, the concentration giving 50% growth inhibition) was above 100 µM and the TGI is above 100 µM. With `Brc1ccc2c(c1)[C@H]1CCc3c([nH]c4ccccc34)[C@H]1N2`, the TGI stood at 23.1 µM. In the case of `O=C1c2cc(Br)ccc2-c2c1c1ccccc1c(=O)n2CCCCl`, the GI50 is 12.4 µM and the total growth inhibition concentration (TGI) is above 100 µM. `O=c1[nH]nc(Nc2ccccc2)c2nnn(Cc3ccccc3)c12`: the TGI was above 100 µM.

On to `O=C1OS2(OC(=O)c3cccc4cccc2c34)c2ccccc21` (stereo unspecified), for which the TGI is above 100 µM. The same measure, in the same setting: the figure for `O=c1c2ccccc2oc2nccnc12` is above 100 µM. In the case of `CC(C)CC(NC(=O)[C@@H]1CCCN1C(=O)CNC(=O)c1ccc(N)cc1)C(=O)N[C@H](C)C(=O)NO` (stereo partly specified) (H-[4Abz]GP[ξL][dA]-{NHOH}), the GI50 is above 100 µM and the concentration for total growth inhibition (TGI) is above 100 µM. For the compound `COc1cc(OC)cc(-c2n[nH]nc2-c2ccc3c(c2)OCO3)c1`, the GI50 was 0.764 µM and the total growth inhibition concentration (TGI) was above 100 µM.

For `Cc1cc(C)c2c(=O)n(CC(O)CN3CCN(c4ncccn4)CC3)sc2n1` (stereo unspecified), the TGI was 30.2 µM. On the same count and under the same terms, then `Nc1nc(-c2ccccc2)cc(-c2ccc(F)cc2)c1-c1ccc(Cl)cc1`, with above 100 µM; and `O=C1/C=C(/c2ccc(O)cc2)[C@H](O)Cc2ccc(OC3OC(CO)C(O)C(O)C3O)cc2O1` (stereo partly specified) (tested in a mixture with another compound), with above 100 µM. Same read-out and setting: then `COC(CO[Si](C)(C)N[Si](C)(C)OCC(OC)c1ccccc1)c1ccccc1` (stereo unspecified), with above 100 µM; and `C(=C/c1ccc2nc(-c3ccc(/C=C/C=N/NC4=NCCCN4)cc3)cn2c1)/C=N/NC1=NCCCN1`, with 46 µM; and `O=C(CCCCCCCCC(=O)OCCCn1cc(C(=O)NC(=O)OCc2ccccc2)c(=O)[nH]c1=O)OCCCn1cc(C(=O)NC(=O)OCc2ccccc2)c(=O)[nH]c1=O`, with above 100 µM. For `Oc1cccc(-c2cc(=S)ss2)c1`, the total growth inhibition concentration (TGI) is 39 µM. Still for that read-out and setting: then `CCCCCCCCOCC(O)COC` (stereo unspecified), with above 100 µM.

For `COc1ccccc1NC(=O)CC(=O)NNCC(=O)Nc1nc(-c2ccccc2)cs1`, the TGI was above 100 µM. Consider `CC([C@H]1CCC2C3CCC4C(=O)C(NC=O)=CC[C@]4(C)C3CC[C@@]21C)N(C)C` (stereo partly specified), for which the GI50 is 3.52 µM and the TGI was determined as 14.3 µM. `COc1ccc(NC(=O)c2cc(NC(=O)/C=C/c3ccccc3)c(OC)c(OC)c2)cc1` displayed a concentration for total growth inhibition (TGI) above 100 µM. Still for that read-out and setting: then `O=C(O)C(=O)/C=C\c1ccc(Cl)cc1`, with above 100 µM; and `CC1CCC(O)/C=C/C(=O)OC(C)C(O)/C=C/C(=O)O1` (stereo unspecified), with above 100 µM. For the compound `COc1cccc(-n2cnc3c(N/N=C/c4ccncc4)ncnc32)c1`, the GI50 is 9.19 µM and the TGI is above 25 µM.

With `CN(C)c1ccc(C(=C2C=CC(=[N+](C)C)C=C2)c2c(O)c(S(=O)(=O)[O-])cc3cc(S(=O)(=O)O)ccc23)cc1`, the TGI was above 100 µM. Consider `NNC(=S)N/N=C(\c1nc2ccc(Cl)cc2[nH]c1=O)C(O)c1ccc(Cl)cc1Cl` (stereo unspecified), for which the total growth inhibition concentration (TGI) was above 100 µM. For `Cn1c(=O)c(C2c3ccccc3Oc3c2c(=O)n(C)c2ccccc32)c(O)c2ccccc21` (stereo unspecified), the concentration for total growth inhibition (TGI) is above 100 µM. Regarding `COc1ccc(/C(C#N)=C/c2nc3c(N4CCOCC4)nc(Cl)nc3n2C)cc1OC`, the concentration for 50% growth inhibition (GI50) was 0.0102 µM and the total growth inhibition concentration (TGI) was 14.2 µM. `O=C(/C=C(\O)C(=O)O)/C=C(\O)c1ccc(Cl)cc1` displayed a concentration for total growth inhibition (TGI) above 100 µM.

Turning to `CCCCC#Cc1c(I)n(C2OC(CO[Si](C)(C)C(C)(C)C)C3OC(C)(C)OC32)c(=O)[nH]c1=O` (stereo unspecified), the GI50 was 15.4 µM and the TGI was 30.4 µM.
